Laboratory results taken from PubChem BioAssay AID504333 (National Center for Advancing Translational Sciences (NCATS), 2011).
Screen size: about 360,000 compounds; about 16,000 (4.4%) were called active. Inconclusive results, whose numbers are uncertain, are shown with a selection of clear calls. Calls come from the whole dose curve; as a rule, active = well fitted inhibition curve with a large enough effect; inconclusive = small, poorly fitted or top-dose-only effect; inactive = no such curve, though single readings can be large or run the other way. Potencies beside an inconclusive call are fits to weak or partial responses and may not hold up.
% is set by controls: 0 for no effect and ±100 for the full control effect; potency is the fitted concentration of half-maximal effect; tags give direction and shape of the fitted curve.
Note: nearly all actives have a fitted effect of over 60% in size.

What follows are compounds tested against Bromodomain adjacent to zinc finger domain protein 2B (Homo sapiens) (UniProt Q9UIF8) (assay: qHTS Assay for Inhibitors of BAZ2B). Conditions: AlphaScreen BAZ2B-H3K14Ac peptide displacement; activity change, negative = inhibition: at 114 µM (top of the series).
Sequence of UniProt Q9UIF8 (Q9UIF8 whole entry, looked up, the tested form may be a part): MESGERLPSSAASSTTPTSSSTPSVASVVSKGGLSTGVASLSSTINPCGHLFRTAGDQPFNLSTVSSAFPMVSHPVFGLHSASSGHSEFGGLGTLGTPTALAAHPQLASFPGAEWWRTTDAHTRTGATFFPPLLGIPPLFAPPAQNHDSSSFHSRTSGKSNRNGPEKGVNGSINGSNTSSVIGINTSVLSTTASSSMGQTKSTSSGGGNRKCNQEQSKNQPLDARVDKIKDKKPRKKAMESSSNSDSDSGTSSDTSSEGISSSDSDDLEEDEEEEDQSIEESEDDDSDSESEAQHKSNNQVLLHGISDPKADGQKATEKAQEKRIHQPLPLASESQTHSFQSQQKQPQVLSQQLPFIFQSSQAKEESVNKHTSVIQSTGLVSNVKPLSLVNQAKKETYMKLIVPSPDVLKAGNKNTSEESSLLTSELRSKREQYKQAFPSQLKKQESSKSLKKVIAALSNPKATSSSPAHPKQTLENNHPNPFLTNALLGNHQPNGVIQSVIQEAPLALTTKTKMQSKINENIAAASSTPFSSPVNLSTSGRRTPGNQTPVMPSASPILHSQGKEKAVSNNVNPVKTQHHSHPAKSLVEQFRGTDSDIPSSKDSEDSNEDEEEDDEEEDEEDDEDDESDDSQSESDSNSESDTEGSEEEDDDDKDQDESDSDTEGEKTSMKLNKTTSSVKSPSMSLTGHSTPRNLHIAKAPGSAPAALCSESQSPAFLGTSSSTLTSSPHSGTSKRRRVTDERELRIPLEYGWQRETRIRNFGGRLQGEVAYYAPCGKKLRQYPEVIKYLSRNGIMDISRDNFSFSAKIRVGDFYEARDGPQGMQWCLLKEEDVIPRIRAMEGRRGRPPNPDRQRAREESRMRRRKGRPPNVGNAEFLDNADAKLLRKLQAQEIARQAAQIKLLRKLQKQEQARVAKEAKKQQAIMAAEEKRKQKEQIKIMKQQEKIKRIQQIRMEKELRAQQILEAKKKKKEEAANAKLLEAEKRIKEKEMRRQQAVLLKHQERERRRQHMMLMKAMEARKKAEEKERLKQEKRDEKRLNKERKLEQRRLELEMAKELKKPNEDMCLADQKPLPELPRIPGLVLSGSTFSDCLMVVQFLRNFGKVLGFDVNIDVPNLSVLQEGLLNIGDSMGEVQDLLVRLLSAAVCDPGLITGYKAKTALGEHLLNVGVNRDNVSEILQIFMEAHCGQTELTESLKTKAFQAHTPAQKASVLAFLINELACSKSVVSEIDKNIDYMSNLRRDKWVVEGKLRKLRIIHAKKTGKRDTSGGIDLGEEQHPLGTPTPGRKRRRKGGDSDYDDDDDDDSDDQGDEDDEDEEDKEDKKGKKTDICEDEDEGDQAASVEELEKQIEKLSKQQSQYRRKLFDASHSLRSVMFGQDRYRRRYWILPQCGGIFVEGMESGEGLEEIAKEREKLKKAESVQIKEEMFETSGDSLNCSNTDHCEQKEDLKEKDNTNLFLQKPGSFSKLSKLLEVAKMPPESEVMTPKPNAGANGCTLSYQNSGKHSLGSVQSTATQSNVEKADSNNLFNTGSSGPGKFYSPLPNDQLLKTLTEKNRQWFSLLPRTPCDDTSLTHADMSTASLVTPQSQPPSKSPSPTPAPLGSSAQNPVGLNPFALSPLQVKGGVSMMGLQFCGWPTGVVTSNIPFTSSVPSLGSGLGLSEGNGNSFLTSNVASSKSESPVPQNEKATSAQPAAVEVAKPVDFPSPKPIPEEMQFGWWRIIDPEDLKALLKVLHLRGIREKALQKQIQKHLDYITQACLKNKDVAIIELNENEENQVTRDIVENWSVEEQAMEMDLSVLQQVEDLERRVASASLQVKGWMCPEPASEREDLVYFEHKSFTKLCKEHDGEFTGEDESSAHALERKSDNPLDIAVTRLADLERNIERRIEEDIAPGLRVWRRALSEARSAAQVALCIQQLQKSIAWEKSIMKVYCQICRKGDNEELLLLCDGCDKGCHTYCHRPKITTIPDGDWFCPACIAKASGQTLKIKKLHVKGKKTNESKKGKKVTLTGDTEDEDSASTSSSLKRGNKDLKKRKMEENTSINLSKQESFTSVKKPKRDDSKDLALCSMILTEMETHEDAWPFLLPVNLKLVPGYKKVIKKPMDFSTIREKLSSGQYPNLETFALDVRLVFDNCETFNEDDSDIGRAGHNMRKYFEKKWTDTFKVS
Method in brief: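 AlphaScreen displacement of biotin-H3(5-23)K14Ac peptide (50 nM final) from BAZ2B (50 nM final) in PBS pH 7.4, 0.01% Tween-20; complex preformed 30 min RT, then compounds (top 110 uM) 30 min RT, beads 20 min dark.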
In the case of `Cc1ccc(C(=O)NC(N(C)C)C(Cl)(Cl)Cl)cc1` (centres undefined), the “activity change, negative = inhibition” value is reported as inactive: 2%. `Cc1ccc(NC(=O)CCc2nc3cccnc3n2-c2ccccc2)cc1` was tested, and the Potency was inconclusive: 79.4 µM [inhibitor, partial curve]. `Cc1ccc(S(=O)(=O)Oc2ccccc2/C=C2\SC(=O)NC2=O)cc1` was tested, and the Potency was inconclusive: 79.4 µM [inhibitor, partial curve]. For `CN(C)CCN(C)Cc1ccccc1Sc1cccc2ccccc12`, the Potency was inconclusive: 50.1 µM [inhibitor, partial curve]. With `COc1ccc(-c2c(-c3cc(OC)cc(OC)c3)n(C)c3ccc(-c4ccn[nH]4)cc23)cc1` the Potency was inconclusive: 44.7 µM [inhibitor, partial curve]. `CCOc1ccc2nc(Cl)c(C3CC(c4ccc(C)cc4)=NN3C(=O)CCCC(=O)O)cc2c1` (centres undefined) was tested, and the “activity change, negative = inhibition” value was inactive: -1.7%. `O=C(CN1C(=O)c2cccc3cccc(c23)C1=O)N1CCN(Cc2ccc3c(c2)OCO3)CC1` was tested, and the “activity change, negative = inhibition” value was inactive: -6.25%. For `CC(C)c1ccc(CNc2cc(N3CCCC3)ccc2[N+](=O)[O-])cc1`, the Potency was inconclusive: 7.08 µM [inhibitor, full curve]. In the case of `CC1Cc2ccccc2N1S(=O)(=O)c1cccc2nsnc12` (centres undefined), the Potency is reported as inconclusive: 44.7 µM [inhibitor, partial curve]. `Cc1ccc2nc(SCC(=O)Nc3cccc([N+](=O)[O-])c3)[nH]c2c1` was tested, and the Potency was inconclusive: 44.7 µM [inhibitor, partial curve]. In the case of `O=[N+]([O-])c1cc([N+](=O)[O-])c(Oc2c(Cl)cccc2Cl)cc1NN1CCCCC1`, the Potency is reported as inconclusive: 8.91 µM [inhibitor, full curve, poor fit]. For `COc1ccc(-c2csc(N(CC(C)C)C(=O)c3ccco3)n2)cc1`, the Potency was inconclusive: 39.8 µM [inhibitor, partial curve]. For `Cc1ccc(NC(=O)COc2ccc3c(c2)OCO3)c(Cl)c1`, the “activity change, negative = inhibition” value was inactive: -2.58%. With `CC(=O)CC1=NC(C)(C)Cc2ccccc21` the Potency was inconclusive: 50.1 µM [inhibitor, partial curve]. `N/C(=N\OC(=O)Cc1ccc([N+](=O)[O-])cc1)c1ccc([N+](=O)[O-])cc1` was tested, and the Potency was inconclusive: 35.5 µM [inhibitor, partial curve]. In the case of `Cc1cccc(C)c1N1CCN(C(=O)Cn2cncn2)CC1`, the “activity change, negative = inhibition” value is reported as inactive: -24.8%. For `CC1=C(C#N)C(c2ccc(O)cc2)C2=C(CC(C)(C)CC2=O)N1` (centres undefined), the “activity change, negative = inhibition” value was inactive: 3.83%. With `Cc1ccc(S(=O)(=O)NCCSC(C)(C)C)cc1` the Potency was inconclusive: 10 µM [inhibitor, single point]. In the case of `O=C(c1cc[n+]([O-])cc1)N1CCc2c([nH]c3ccccc23)C1c1ccccc1Cl` (centres undefined), the Potency is reported as inconclusive: 20 µM [inhibitor, full curve].
